According to PMC12136788:
Some of the results follow.

B1: chr10:5457295:5457390:+|3pUTR|ENSG00000173848|msi1_unk|total|mutant (ssRNA)
RNA: GGGAGUUCUACAGUCCGACGAUCUCUGGAUUCAUCAUGGCUUUCUAAUACCAAUUGUAAUAUUUACAAUAUUCACCAAAACUCCGAAUUUUGCAAAUGCUGGAAUUCUGCCAGUGUUUCUUUGCUAAGCCUUGCAUGCAAAAUCAACAGAGGAUUGAGCAUCA
B2: chr1:152033651:152033752:-|CDS|ENSG00000163191|unk|total|mutant (ssRNA)
RNA: GGGAGUUCUACAGUCCGACGAUCGGAUGGUUAUAACUACACUCUCUCCAAGACAGAGUUCCUAAGCUUCAUGAAUACAGAACCCGCUGCCUUCACAAAGGUACUGGUCCCUGUCUCCCCCACUUCCCCAAACUACCCACAACACAACAGAGGAUUGAGCAUCA
B3: chr1:6522505:6522606:-|3pUTR|ENSG00000162408|msi1|FALSE|unique (ssRNA)
RNA: GGGAGUUCUACAGUCCGACGAUCCUGGGAUUACAGGCGUGAGCCACUGCGCCUGGCCUGAAGCUAUUCUUUACAAAAGCUCUUAGUUUUUGUUUGUUUGUUUGUUUUUUUCUUUUGCGACGGACUCUCUGUCGCCAAGGCUGGCAACAGAGGAUUGAGCAUCA
B4: chr3:97755980:97756081:+|3pUTR|ENSG00000080224|unk|total|mutant (ssRNA)
RNA: GGGAGUUCUACAGUCCGACGAUCUAAUUAAAAAUCUCUUUCCUACCUUCCGUAAUUUGCCGGAUGAACUGUAUGCAUUCCGACCGAAAUUGCUUUUGUUAAAUUUACAUUUAAACACAUCUUCAUUCACUCCGAGAAGCCAUACAACAGAGGAUUGAGCAUCA
B5: chr20:3649766:3649867:+|3pUTR|ENSG00000088812|unk|total|mutant (ssRNA)
RNA: GGGAGUUCUACAGUCCGACGAUCAAGUUCAAAGACUAACCUGCCGCAAUCAGACUUUCCAAAAGGGGGUUCUCCAUUUUUUGCCGUUUUGUCUAAAUUUUUAAUGACCAUUUCCUGGAAUCAGUUUAUUAUACUGAAAACUGGCAACAGAGGAUUGAGCAUCA
B6: chr12:120700859:120700960:+|3pUTR|ENSG00000110917|msi1|FALSE|unique (ssRNA)
RNA: GGGAGUUCUACAGUCCGACGAUCUCUUUGCAUCUGUGUGGCUUGCUUCCAGUCUGGCCUGUCCUUUCCAGCUGCCUUUUGUCUAGCCUGCUAUGGGGGGCCAGAUUAUCUUGAUAAGAGCAGGUGAUUUGGGGACUAGCUGGGCAACAGAGGAUUGAGCAUCA
B7: chr20:1570784:1571137:-|CDS|ENSG00000101307|control|control|control (ssRNA)
RNA: GGGAGUUCUACAGUCCGACGAUCACAGCUGACCUGGUUGGAGAAUGGAAAUGUGUCCCGGACAGAAACAGCUUCGACCCUCAUAGAGAACAAGGAUGGCACCUACAACUGGAUGAGCUGGCUCCUGGUGAACACCUGUGCCCACAACAGAGGAUUGAGCAUCA
B8: chr14:71723713:71723820:+|CDS|ENSG00000197555|unk|FALSE|unique (ssRNA)
RNA: GGGAGUUCUACAGUCCGACGAUCGCUGCCCCCUCACAGCUCGCACCAUCCUUCUCCUCCUCUUCCUCCUCCUCCUCUGGUCCUAGGAGUUUUUACCCUCGCCAGGGCGCUACUAGCAAGUACCUGAUUGGAUGGAAAAAACCCCAACAGAGGAUUGAGCAUCA
B9: chr3:111884732:111884833:+|CDS|ENSG00000144824|msi1|FALSE|unique (ssRNA)
RNA: GGGAGUUCUACAGUCCGACGAUCCUUCAACCCAAGUUAACUAGACACAAGGAGCUUGCAUCUGAAAACAUCAAUUUGAGAACUAGGAAGUACUCCAGCAGCAGCCUGAGUCACAUGGGAGCCUACAGCCGAUCACUUCCCAGGCAACAGAGGAUUGAGCAUCA
B10: chr1:28768968:28769069:+|3pUTR|ENSG00000198492|msi1|FALSE|bound_elsewhere (ssRNA)
RNA: GGGAGUUCUACAGUCCGACGAUCGACUGCAGCAACGGUUGCAUCUGCAUAUCCUAAGAGGAAAAAAUGACCUUCAAGAGAAUUAGGACUUUUUUCUUAAUUUCACUGACUUCAGAGACGAUUGCAGACUUGCAGUUUAAGUAUCAACAGAGGAUUGAGCAUCA
B11: chr1:45640296:45640398:-|CDS|ENSG00000159592|unk|total|mutant (ssRNA)
RNA: GGGAGUUCUACAGUCCGACGAUCCUCUCCACUCUUGUACUUCACAGAAAACCCGCCCCGUGCCAAGCAACCCUCCAAGAUGCCCGUUAUCAAAAAAGUUUCCAAAGAGGAUCCUGCUGCUGCCUUCUCUGCUGCAUUCACCUCCAACAGAGGAUUGAGCAUCA
B12: chr12:32745429:32745530:+|3pUTR|ENSG00000087470|msi1|total|mutant (ssRNA)
RNA: GGGAGUUCUACAGUCCGACGAUCCAACGGAAAGAGAAAAGCCUUCCUUUGUUGGCCCUUAAACUGAGUCAAGAUCUGAAAUGCCGAGAUGAUCUCUGACGAUACCUGUAUGUUCUUAUUGUGUAAAUAAAAUUGCUGGUAUGACAACAGAGGAUUGAGCAUCA
B13: ENSG00000107863:be:win_4551|CDS|ENSG00000107863|bound_else_gene|NA|bound_elsewhere_windowed (ssRNA)
RNA: GGGAGUUCUACAGUCCGACGAUCCAGCUGUCGCUUUGCCAUCCUGAAAGAGAGCCCCAGGUCACUUCUGGCACAGAAGUCCUCCCACCUUGAAGAGACAGGCUCUGACUCUGGCACUUUGCUCAGCACGUCUUCCCAGGCCUCCAACAGAGGAUUGAGCAUCA
B14: chr8:39103990:39104232:+|3pUTR|ENSG00000168615|msi1|total|mutant (ssRNA)
RNA: GGGAGUUCUACAGUCCGACGAUCGUUUUGUCAUUAAGUGUUUAAGUGUUAUUCUGAAUUUUCUACCUCCGUUAUCAUUAAUGCCGUUCCUCAUUGAACAUGUGAUAAUCUAAUACCUGUGAAAACUGACUAAUCAGCUGCCAACAACAGAGGAUUGAGCAUCA

The binders below were run against MSI1 full-length (mouse, UniProt Q61474 1-362) (assay: nsRBNS (natural sequence RNA bind-n-seq); RBNS binding buffer (assumed for nsRBNS): 25 mM Tris pH 7.5, 150 mM KCl, 3 mM MgCl2, 0.01% Triton X-100, 500 ug/ml BSA, 20 U/ml SUPERase-In, 4 C; UNK is unkempt and MSI1 is Musashi-1; names of the RNAs are library labels; protein concentration not given here; high values mean tight binding).
Chain of UniProt Q61474 (Q61474 whole entry): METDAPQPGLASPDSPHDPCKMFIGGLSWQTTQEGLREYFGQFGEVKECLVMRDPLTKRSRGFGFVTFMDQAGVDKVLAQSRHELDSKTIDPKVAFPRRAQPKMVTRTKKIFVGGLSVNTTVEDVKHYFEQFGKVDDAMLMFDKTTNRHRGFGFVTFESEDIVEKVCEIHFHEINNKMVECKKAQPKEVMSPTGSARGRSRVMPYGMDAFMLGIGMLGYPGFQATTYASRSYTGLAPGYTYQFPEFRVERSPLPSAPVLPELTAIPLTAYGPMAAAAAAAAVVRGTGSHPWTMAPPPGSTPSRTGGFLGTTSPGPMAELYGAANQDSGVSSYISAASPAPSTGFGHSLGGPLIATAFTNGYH

**Q.** How did the binding signal turn out when B1 was run?
**A.** Its binding signal is 0.258 enrichment R.

**Q.** With B2 as the binder, how does the binding signal read?
**A.** The binding signal was 0.705 enrichment R.

**Q.** For B3, which binding signal is on record?
**A.** The binding signal was 0.372 enrichment R.

**Q.** For B4, which binding signal is on record?
**A.** Its binding signal is 1.21 enrichment R.

**Q.** How did the binding signal turn out when B5 was run?
**A.** The binding signal was 0.35 enrichment R.

**Q.** With B6 as the binder, how does the binding signal read?
**A.** The binding signal was 0.459 enrichment R.

**Q.** How did the binding signal turn out when B7 was run?
**A.** The binding signal was 0.427 enrichment R.

**Q.** With B8 as the binder, how does the binding signal read?
**A.** The binding signal was 0.865 enrichment R.

**Q.** With B9 as the binder, how does the binding signal read?
**A.** Its binding signal is 0.686 enrichment R.

**Q.** For B10, which binding signal is on record?
**A.** The binding signal was 0.196 enrichment R.

**Q.** How did the binding signal turn out when B11 was run?
**A.** The binding signal was 0.762 enrichment R.

**Q.** B12 was tested. Which binding signal did it give?
**A.** The binding signal was 0.228 enrichment R.

**Q.** B13 was tested. Which binding signal did it give?
**A.** The binding signal was 0.449 enrichment R.

**Q.** For B14, which binding signal is on record?
**A.** The binding signal was 0.962 enrichment R.
